Measured values from publication PMC13532744.
Results are given in words; binding and its absence hold for the method and conditions named. Binding seen in cells or lysates may run through a third protein. Some results given as binding are weak or reduced against the parent protein; the word gives no strength. Where a sequence is shown, tags or fusion partners need not be part of it.

Amino acid sequences for entries named in this document (tags omitted).
UniProt P29466: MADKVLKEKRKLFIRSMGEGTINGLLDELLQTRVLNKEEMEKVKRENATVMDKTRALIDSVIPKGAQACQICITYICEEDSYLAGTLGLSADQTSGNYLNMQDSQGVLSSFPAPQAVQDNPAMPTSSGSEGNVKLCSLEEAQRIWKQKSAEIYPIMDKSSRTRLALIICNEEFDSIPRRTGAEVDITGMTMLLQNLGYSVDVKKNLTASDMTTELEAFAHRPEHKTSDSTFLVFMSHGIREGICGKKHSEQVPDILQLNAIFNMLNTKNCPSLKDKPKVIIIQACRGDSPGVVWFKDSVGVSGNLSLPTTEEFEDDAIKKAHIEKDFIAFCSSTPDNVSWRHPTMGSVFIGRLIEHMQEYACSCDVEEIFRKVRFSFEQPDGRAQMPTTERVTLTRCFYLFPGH

Assays:
FLAG-caspase-2 (human) = target: T1, FLAG-caspase-2 (human) (UniProt P42575); experiment: co-IP; both partners tagged and transfected in HeLa or HEK293T for 24 h (some primed with IFN-γ and/or transfected with LPS); lysis in 150 mM NaCl, 50 mM Tris pH 7.5, 1 mM EDTA, 0.5% NP40, 10% glycerol; anti-FLAG M2 or anti-Myc magnetic beads overnight at 4 °C; immunoblot or Coomassie
T1 sequence: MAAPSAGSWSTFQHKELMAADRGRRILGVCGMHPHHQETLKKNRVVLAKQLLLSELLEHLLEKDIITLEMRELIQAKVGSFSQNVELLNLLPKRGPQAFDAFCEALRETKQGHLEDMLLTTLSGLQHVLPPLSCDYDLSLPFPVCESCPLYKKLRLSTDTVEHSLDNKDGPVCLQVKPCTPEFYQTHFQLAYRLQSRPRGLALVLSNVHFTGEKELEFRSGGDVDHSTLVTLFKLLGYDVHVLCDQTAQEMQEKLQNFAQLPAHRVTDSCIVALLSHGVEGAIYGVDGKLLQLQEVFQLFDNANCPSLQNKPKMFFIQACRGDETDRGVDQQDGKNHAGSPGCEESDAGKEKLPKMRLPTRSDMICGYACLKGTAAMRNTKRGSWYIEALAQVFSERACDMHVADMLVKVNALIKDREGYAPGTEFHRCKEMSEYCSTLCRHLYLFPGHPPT

FLAG-caspase-11 (mouse) [1] = target: T2, FLAG-caspase-11 (mouse) (UniProt P70343); experiment: as above
T2 sequence: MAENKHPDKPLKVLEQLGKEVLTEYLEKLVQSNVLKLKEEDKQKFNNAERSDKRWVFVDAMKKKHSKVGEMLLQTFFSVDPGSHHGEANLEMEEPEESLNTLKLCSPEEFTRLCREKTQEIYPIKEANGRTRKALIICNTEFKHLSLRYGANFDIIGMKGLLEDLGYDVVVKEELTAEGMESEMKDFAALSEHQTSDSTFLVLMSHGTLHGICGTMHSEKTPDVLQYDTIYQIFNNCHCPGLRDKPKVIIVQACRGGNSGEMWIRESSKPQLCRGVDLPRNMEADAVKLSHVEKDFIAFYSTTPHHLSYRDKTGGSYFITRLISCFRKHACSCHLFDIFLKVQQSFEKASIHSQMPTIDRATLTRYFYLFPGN

FLAG-caspase-1 (human) = FLAG-caspase-1 (human) (UniProt P29466); experiment: as above
FLAG-caspase-7 (human) = target: T3, FLAG-caspase-7 (human) (UniProt P55210); experiment: as above
T3 sequence: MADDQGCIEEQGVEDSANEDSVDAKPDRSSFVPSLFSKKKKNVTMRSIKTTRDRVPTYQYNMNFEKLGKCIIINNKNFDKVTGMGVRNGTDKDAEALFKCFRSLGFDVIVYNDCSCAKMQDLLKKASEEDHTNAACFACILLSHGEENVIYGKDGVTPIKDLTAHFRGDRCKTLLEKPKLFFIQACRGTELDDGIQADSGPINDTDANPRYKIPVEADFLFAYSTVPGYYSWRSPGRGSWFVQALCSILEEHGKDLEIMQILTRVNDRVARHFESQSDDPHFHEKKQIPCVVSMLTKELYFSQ

FLAG-caspase-11 (mouse) [2] = target: T2, FLAG-caspase-11 (mouse); experiment: condition: only beads-bound immunoprecipitate digested with recombinant USP5 (removes unanchored polyUb); co-IP; FLAG-caspase-4/11 immunoprecipitates with Myc-UBXN1, beads-bound fraction digested with recombinant USP5 (IsoT) to remove unanchored polyUb, then immunoblot

B1: Myc-UBXN1 (protein, UniProt Q04323 1-297)
chain: MAELTALESLIEMGFPRGRAEKALALTGNQGIEAAMDWLMEHEDDPDVDEPLETPLGHILGREPTSSEQGGLEGSGSAAGEGKPALSEEERQEQTKRMLELVAQKQREREEREEREALERERQRRRQGQELSAARQRLQEDEMRRAAEERRREKAEELAARQRVREKIERDKAERAKKYGGSVGSQPPPVAPEPGPVPSSPSQEPPTKREYDQCRIQVRLPDGTSLTQTFRAREQLAAVRLYVELHRGEELGGGQDPVQLLSGFPRRAFSEADMERPLQELGLVPSAVLIVAKKCPS
FLAG-caspase-2 (human)
  binding: no binding
FLAG-caspase-11 (mouse) [1]
  binding: binds
FLAG-caspase-1 (human)
  binding: no binding
FLAG-caspase-7 (human)
  binding: no binding
FLAG-caspase-11 (mouse) [2]
  binding: no binding
